In PubChem BioAssay AID485364 (National Center for Advancing Translational Sciences (NCATS), 2010):
“And” between values parts separate entries of the source, which are not always exact repeats. Identical values can stand only once. The campaign covered roughly 360,000 compounds. About 11,000 (3.1%) were called active. The shares of active, inactive and inconclusive entries below differ from those in the screen. The call rests on the fitted dose curve; in most records, active means well fitted inhibition curve with a large enough effect; inconclusive means small, poorly fitted or top-dose-only effect; inactive means no such curve, though single readings can be large or run the other way. Potencies of inconclusive entries are doubtful fits and often do not repeat.

What follows are compounds tested against Schistosoma mansoni thioredoxin glutathione reductase (TGR) (UniProt Q962Y6) (assay: qHTS Assay for the Inhibitors of Schistosoma Mansoni Peroxiredoxins). Conditions: purified TGR, DTNB reduction, TNB absorbance 405 nm; series mostly up to 114 µM.
Method in brief: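 TGR 20 nM + NADPH 100 uM (dispensed conc.), cpd preinc 15 min RT; start with NADPH (500 uM addition) then DTNB (15 mM addition). Kinetic TNB absorbance, 405 nm filter. Four-parameter Hill fit across titration.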
Further: nearly all actives have a fitted effect of over 60% in size.
Potency means the concentration at half of the fitted maximal effect; tags describe the fitted curve by direction and shape.

Row | SMILES | Potency
1 | O=C(CNc1ccccc1)N/N=C/c1ccc([N+](=O)[O-])o1 | inconclusive: 39.8 µM [inhibitor, partial curve]
2 | Cc1ccccc1OCc1nnc(SCC(=O)Nc2ccc3c(c2)OCO3)n1C | inconclusive: 39.8 µM [inhibitor, single point]
3 | CCOc1cccc2c1OC(c1cc(OC)c(OC)c(OC)c1)N1N=C(c3ccc(C)o3)CC21 (stereo unspecified) | active: 44.7 µM
4 | O=C(c1ccc(Cl)cc1)C1CCCN(Cc2cccn2-c2ccccn2)C1 (stereo unspecified) | inactive
5 | Cn1c(=O)cc(OCC(=O)NCCCN2CCN(c3ccccc3F)CC2)c2ccccc21 | inactive
6 | O=C(CCNC(=O)C1CCN(S(=O)(=O)c2ccccc2)CC1)NCc1ccncc1 | inactive
7 | CCOC(=O)Cn1cc(/C=C(\C#N)C(=O)N2CCOCC2)c2ccccc21 | inactive
8 | Cc1ccc(-c2ccc(NC(=O)C3C4C=CC(C4)C3C(=O)O)cc2)o1 (stereo unspecified) | active: 44.7 µM
9 | Cc1coc2c(C)c3oc(=O)c(CCC(=O)N(C)CC(=O)O)c(C)c3cc12 | inconclusive: 89.1 µM [inhibitor, single point]
10 | COc1ccc(OC)c(NC(=O)/C=C/c2ccc(C)o2)c1 | active: 50.1 µM
11 | Cc1ccc(C(=O)O)cc1N1C(=O)c2cccc3c([N+](=O)[O-])ccc(c23)C1=O | active: 14.1 µM
12 | COc1ccc(/C=C2/C(=O)ON=C2c2ccccc2)cc1OC | inconclusive: 44.7 µM [inhibitor, partial curve]
13 | Cc1nc(NC(=O)CSc2nnc(N)s2)c(Cl)cc1Cl | inconclusive: 89.1 µM [inhibitor, single point]
14 | CCOc1ccccc1CNc1ncnc2ccc(-c3c(C)noc3C)cc12 | inconclusive: 12.6 µM [inhibitor, full curve] and inconclusive: 25.1 µM [inhibitor, partial curve]
15 | c1ccc(-c2csc3ncnc(N4CCN(Cc5ccc6c(c5)OCO6)CC4)c23)cc1 | active: 17.8 µM
16 | CC1CCN(CC(=O)Nc2cccc([N+](=O)[O-])c2)CC1 | inactive
17 | CC(=O)Nc1cccc(NC(=O)CSc2nnc(Cc3cccn3C)n2-c2ccc(F)cc2)c1 | inconclusive: 50.1 µM [inhibitor, partial curve]
18 | CCN(CC)S(=O)(=O)c1ccc(C(=O)N2CCN(CCN3C(=O)c4cccc5cccc(c45)C3=O)CC2)cc1 | inactive
19 | CCOC(=O)Cn1c(=NC(=O)C(C)C)sc2c(C)cc(C)cc21 | inactive
20 | Cc1ccc(CCNC(=O)CS(=O)Cc2nc(-c3cccc(C)c3)oc2C)cc1 (stereo unspecified) | inconclusive: 20 µM [inhibitor, partial curve]
21 | COc1ccc(N2CCN(C(=O)COC(=O)Cc3cccc(OC)c3)CC2)cc1 | inactive
